Assay results published in the supplement of paper PMC7125110.
± gives the standard error. This sample is rich in variants without activity.

B1: glmS ribozyme (parent)
chain: AUAAAAGCGCCAGAACUACAGAAAUGUAGUUGACGAGGAGGAGGUUUAUCGAAUUUUCGGCGGAUGCCUCCAAA

Legend:
Settings in all cases: with glucosamine-6-phosphate
glucosamine-6-phosphate [1] = variants of: B1; test: self-cleavage kobs at 2500 uM GlcN6P; higher = faster cleavage; RNA array
Procedure, shortened: (§1)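 Tiles of sequenced MiSeq chips were imaged over ~14 h at 37 °C. On them, barcoded ribozyme variants had been transcribed in situ by E. coli RNA polymerase and were tracked via a hybridised Cy3 probe while glucosamine-6-phosphate (40 μM to 10 mM) in HEPES/KCl/Mg(OAc)2 buffer flowed in. Per-tile medians, normalised to baseline and to non-cleaving reference variants, were fit to one- or two-exponential decays for kobs, and weighted Michaelis–Menten fits gave kcat and KM.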

glucosamine-6-phosphate [2] = variants of: B1; test: self-cleavage kobs at 10000 uM GlcN6P; higher = faster cleavage; RNA array
Procedure, shortened: as §1

glucosamine-6-phosphate [3] = variants of: B1; test: self-cleavage kobs at 160 uM GlcN6P; higher = faster cleavage; RNA array
Procedure, shortened: as §1

glucosamine-6-phosphate [4] = variants of: B1; test: self-cleavage kobs at 640 uM GlcN6P; higher = faster cleavage; RNA array
Procedure, shortened: as §1

Variant	self-cleavage kobs at 2500 uM GlcN6P (glucosamine-6-phosphate [1])	self-cleavage kobs at 10000 uM GlcN6P (glucosamine-6-phosphate [2])	self-cleavage kobs at 160 uM GlcN6P (glucosamine-6-phosphate [3])	self-cleavage kobs at 640 uM GlcN6P (glucosamine-6-phosphate [4])
G7C A14G C16G U69A	< 1e-05 s⁻¹	< 1e-05 s⁻¹		
C8U C34A A48U	< 1e-05 s⁻¹			
A48C G59U U69C	< 1e-05 s⁻¹		< 1e-05 s⁻¹	
G7U G9U U31C U56C	< 1e-05 s⁻¹			
G44U A48G C70G	< 1e-05 s⁻¹			< 1e-05 s⁻¹
A6U C16G G29U G43C U47G U54C	< 1e-05 s⁻¹			
G40U U65G	0.00108 ± 0.00028 s⁻¹	0.0019 ± 0.00044 s⁻¹		0.000417 ± 0.00014 s⁻¹
A6U C8A A33C U65G	< 1e-05 s⁻¹			
G9C C50G			0.00045 ± 0.00018 s⁻¹	
G41U U45G	0.000339 ± 9.1e-05 s⁻¹	0.000243 ± 4.4e-05 s⁻¹	3.13e-05 ± 1.4e-05 s⁻¹	0.000129 ± 1.7e-05 s⁻¹
G9A U57G C71U	< 1e-05 s⁻¹			
G40A G60A U65A	< 1e-05 s⁻¹		< 1e-05 s⁻¹	< 1e-05 s⁻¹
G7A A15C G41A A42C G44A	< 1e-05 s⁻¹			
G7C A48G C50G	< 1e-05 s⁻¹			
U46G C61A C70U			< 1e-05 s⁻¹	
C8G C10G A14U G60C C70U	< 1e-05 s⁻¹			
A6U G38C U47G A52U C68A	< 1e-05 s⁻¹			
A6C U49C G59U U65A	< 1e-05 s⁻¹			
G9U G29U G35U G38C U45G U49A	< 1e-05 s⁻¹			
C61U C71G			< 1e-05 s⁻¹	
G60A C61U G63A	< 1e-05 s⁻¹		< 1e-05 s⁻¹	
G7A C16U			< 1e-05 s⁻¹	
C10U A42C G62A U65G C68U	< 1e-05 s⁻¹			
U45C A52G C70U	6.92e-05 ± 1.3e-05 s⁻¹			4.7e-05 ± 1.6e-05 s⁻¹
A6G C10U G35U G40U	< 1e-05 s⁻¹			

Variant	self-cleavage kobs at 2500 uM GlcN6P (glucosamine-6-phosphate [1])	self-cleavage kobs at 10000 uM GlcN6P (glucosamine-6-phosphate [2])	self-cleavage kobs at 160 uM GlcN6P (glucosamine-6-phosphate [3])	self-cleavage kobs at 640 uM GlcN6P (glucosamine-6-phosphate [4])
C10G G44U C71A	< 1e-05 s⁻¹			
A6U G32C C34U	< 1e-05 s⁻¹			
A12C C34U	< 1e-05 s⁻¹	< 1e-05 s⁻¹	< 1e-05 s⁻¹	
C8G C16G G40C	< 1e-05 s⁻¹			
C8A C50A C68A	< 1e-05 s⁻¹			
A53U G62A C68U			< 1e-05 s⁻¹	< 1e-05 s⁻¹
A6C A42U G59U	< 1e-05 s⁻¹			
C8G U69A	< 1e-05 s⁻¹			
C58U G59C C61U C71A				< 1e-05 s⁻¹
A42G U55G A64G C71G	5.98e-05 ± 2e-05 s⁻¹			0.000116 ± 3.7e-05 s⁻¹
A36C A64G	< 1e-05 s⁻¹		< 1e-05 s⁻¹	
G43A A52G A64C U65G		< 1e-05 s⁻¹		< 1e-05 s⁻¹
G32A G51C G66U			< 1e-05 s⁻¹	
A42G G59U A64G			< 1e-05 s⁻¹	
A52C U57G U69G				8.06e-05 ± 2.8e-05 s⁻¹
A39U G51C	< 1e-05 s⁻¹	< 1e-05 s⁻¹		< 1e-05 s⁻¹
G7C C8G G32C U54A	< 1e-05 s⁻¹		< 1e-05 s⁻¹	
U47G C50A A64G U69G	0.000142 ± 3.1e-05 s⁻¹	3.49e-05 ± 1.6e-05 s⁻¹	0.000158 ± 4.6e-05 s⁻¹	0.000155 ± 3.9e-05 s⁻¹
G9U G37U C50U C67U			< 1e-05 s⁻¹	
U55G A64U C67A				< 1e-05 s⁻¹
C10G C34A G37A G60U	< 1e-05 s⁻¹			
G9A A42C C58G C70G	< 1e-05 s⁻¹			
G7A A53U G59C	< 1e-05 s⁻¹			
G9U A12G U46C	< 1e-05 s⁻¹		< 1e-05 s⁻¹	
C11A A12G G32U C50U			< 1e-05 s⁻¹	

Variant	self-cleavage kobs at 2500 uM GlcN6P (glucosamine-6-phosphate [1])	self-cleavage kobs at 10000 uM GlcN6P (glucosamine-6-phosphate [2])	self-cleavage kobs at 160 uM GlcN6P (glucosamine-6-phosphate [3])	self-cleavage kobs at 640 uM GlcN6P (glucosamine-6-phosphate [4])
A6C G29C A33U G37U	< 1e-05 s⁻¹			
G9A C11U A15U U31G G35C A42U			< 1e-05 s⁻¹	
G9C G32U A39C C71G			< 1e-05 s⁻¹	
A6U A52G U55C	< 1e-05 s⁻¹			
G43U U54G C58A C67U				< 1e-05 s⁻¹
G63A C67G	< 1e-05 s⁻¹			< 1e-05 s⁻¹
A6U G9A G32A C70A	< 1e-05 s⁻¹			
C8A C11U C70U	< 1e-05 s⁻¹			
A6C A15U U45A A52U G63C	< 1e-05 s⁻¹			
G40U G59A G63U				< 1e-05 s⁻¹
C10G A42C U45G	< 1e-05 s⁻¹			
G9A C11G A12U	< 1e-05 s⁻¹	< 1e-05 s⁻¹		
G13A A39G C68A			< 1e-05 s⁻¹	
G7A A39C G59C C70U	< 1e-05 s⁻¹			
A6U A33C A64G C68G C70U	< 1e-05 s⁻¹			
C10U A36C G62U	< 1e-05 s⁻¹			
C8A U54C G63C	< 1e-05 s⁻¹			
C68A U69G				9.62e-05 ± 3.5e-05 s⁻¹
G40C U47G	0.00041 ± 5.3e-05 s⁻¹		7.96e-05 ± 1.8e-05 s⁻¹	0.000157 ± 2.4e-05 s⁻¹
C8G C11A C70U	< 1e-05 s⁻¹			
A6C U55G C71U	6.13e-05 ± 2e-05 s⁻¹			
C11A A14C U31G U65G		2.62e-05 ± 1.2e-05 s⁻¹	< 1e-05 s⁻¹	
C8G A64U U69A	< 1e-05 s⁻¹			
G37U G62C			< 1e-05 s⁻¹	
G9U C16G A33G U65C	< 1e-05 s⁻¹			
